Here are results for 103 sequences from the supplement of paper PMC12067230.

Single values of this set are uncertain.
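Also: [psi-pin-] Saccharomyces cerevisiae expressing SupN fusions, induced by 100 µM Cu2SO4, selected 7 d at 30 °C without adenine and uracil, scored by deep sequencing of output versus input.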

The first data set can be described thus: amyloid nucleation score relative to library mode (yeast Sup35 reporter selection) (log enrichment difference); higher = more amyloid nucleation; sequences are the first 22 residues of the Bri2 peptide extended by up to 12 random residues. Particulars: random library (experiment): 1;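 active = nucleation score significantly above 0 at FDR 0.05; inactive = not significantly above 0 or absent from output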.
For EASNCFAIRHFENKFAVETLICGHSYTSYKIYAV, the amyloid nucleation score result was “inactive”.
Same read-out and setting: under EASNCFAIRHFENKFAVETLICGHTGSRYETL stands “inactive”; under EASNCFAIRHFENKFAVETLICGHTLQSQTGEVR, “inactive”; under EASNCFAIRHFENKFAVETLICGHVPYILCRMTY, 3.79.
On to EASNCFAIRHFENKFAVETLICGHW, for which the amyloid nucleation score was found to be 4.55.
Turning to EASNCFAIRHFENKFAVETLICGHWPPLWWANRA, the amyloid nucleation score came out at 3.25.
On to EASNCFAIRHFENKFAVETLICGHYLGRWFVVLV, for which the amyloid nucleation score was found to be 0.645.
On to EASNCFAIRHFENKFAVETLICGHYRNKQWVRGV, for which the amyloid nucleation score entry is “inactive”.
Consider EASNCFAIRHFENKFAVETLICGI, for which the amyloid nucleation score entry was “inactive”.
On the same count and under the same terms, under EASNCFAIRHFENKFAVETLICGIAVGPSLWSCG stands 2.65; under EASNCFAIRHFENKFAVETLICGIELSPDLGQCV, “inactive”.
Same read-out and setting: under EASNCFAIRHFENKFAVETLICGILSAGRMMRAR stands “inactive”; under EASNCFAIRHFENKFAVETLICGIMCLRCPGQIL, 3.46; under EASNCFAIRHFENKFAVETLICGIMGCWSVSSEK, 8.94.
On the same count and under the same terms, the figure for EASNCFAIRHFENKFAVETLICGIMKGSAEYSGF is -0.0664; for EASNCFAIRHFENKFAVETLICGIPRGVIDSKFL it is “inactive”.
For the sequence EASNCFAIRHFENKFAVETLICGIQWKPEGAVSA, the amyloid nucleation score entry was “inactive”.
Regarding EASNCFAIRHFENKFAVETLICGIR, the amyloid nucleation score entry was “inactive”.
Sequence EASNCFAIRHFENKFAVETLICGIRHVHMGLERA showed an amyloid nucleation score of -0.0385.
On the same count and under the same terms, the entry for EASNCFAIRHFENKFAVETLICGIRS is “inactive”; for EASNCFAIRHFENKFAVETLICGISLGHASSQPR it is 5.11; for EASNCFAIRHFENKFAVETLICGISWSLWKEGRW it is “inactive”.
The sequence EASNCFAIRHFENKFAVETLICGIVLTGVKPRWP registered an amyloid nucleation score of 2.42.
In turn, EASNCFAIRHFENKFAVETLICGIWTVRTLRFMR gave an amyloid nucleation score of 3.72.
For EASNCFAIRHFENKFAVETLICGIYKTYRDVP, the amyloid nucleation score is 2.92.
Still for that read-out and setting: the figure for EASNCFAIRHFENKFAVETLICGIYLLM is -0.0385; for EASNCFAIRHFENKFAVETLICGK it is “inactive”.
Same read-out and setting: the entry for EASNCFAIRHFENKFAVETLICGKAAAG is “inactive”; for EASNCFAIRHFENKFAVETLICGKALLFDQDGLS it is “inactive”.
On the same count and under the same terms, the entry for EASNCFAIRHFENKFAVETLICGKECWWTWCEGR is “inactive”.
EASNCFAIRHFENKFAVETLICGKEVDKVWVRRV: the amyloid nucleation score result was “inactive”.
In turn, EASNCFAIRHFENKFAVETLICGKFEMMVKNVTE gave an amyloid nucleation score of -0.708.
Still for that read-out and setting: under EASNCFAIRHFENKFAVETLICGKFVCGSGGPGR stands 8.4.
Same read-out and setting: under EASNCFAIRHFENKFAVETLICGKGARGRPSWRG stands “inactive”; under EASNCFAIRHFENKFAVETLICGKGPTRKTCTVH, “inactive”.
Still for that read-out and setting: under EASNCFAIRHFENKFAVETLICGKLPLLYSGREG stands “inactive”.
As to EASNCFAIRHFENKFAVETLICGKLVFVCRWMS, the amyloid nucleation score result is “inactive”.
Turning to EASNCFAIRHFENKFAVETLICGKMKPLTLARVV, the amyloid nucleation score result was “inactive”.
For EASNCFAIRHFENKFAVETLICGKQDLYAKPVRS, the amyloid nucleation score entry is “inactive”.
Still for that read-out and setting: under EASNCFAIRHFENKFAVETLICGKRQIGMFGL stands “inactive”.
Turning to EASNCFAIRHFENKFAVETLICGKRVRKAAVGGA, the amyloid nucleation score result was “inactive”.
Same read-out and setting: under EASNCFAIRHFENKFAVETLICGKSS stands “inactive”; under EASNCFAIRHFENKFAVETLICGKTLQGMGYWAR, 4.35.
The same measure, in the same setting: under EASNCFAIRHFENKFAVETLICGKVGWTVEYLRF stands “inactive”; under EASNCFAIRHFENKFAVETLICGKYG, “inactive”; under EASNCFAIRHFENKFAVETLICGKYSRSFWSQVT, “inactive”.
Same read-out and setting: the figure for EASNCFAIRHFENKFAVETLICGKYTQMHQRLQM is 0.224; for EASNCFAIRHFENKFAVETLICGLACEAYKGACG it is “inactive”.

Still in this data set, the particulars now being: random library (experiment): 2.
In turn, EASNCFAIRHFENKFAVETLICGHVRNGREFIFL gave an amyloid nucleation score of 1.2.
Same read-out and setting: the entry for EASNCFAIRHFENKFAVETLICGICCYFSMFVKT is “inactive”; for EASNCFAIRHFENKFAVETLICGICGRNNECVSR it is 5.46.
In the case of EASNCFAIRHFENKFAVETLICGIFCKYFCVCSR, the amyloid nucleation score result was “inactive”.
Still for that read-out and setting: the figure for EASNCFAIRHFENKFAVETLICGIFDLCC is 7.69; for EASNCFAIRHFENKFAVETLICGIFITDSRLLE it is 3.13.
EASNCFAIRHFENKFAVETLICGIFVRVEHGFHE: the amyloid nucleation score was 5.47.
Regarding EASNCFAIRHFENKFAVETLICGIFYHLI, the amyloid nucleation score entry is “inactive”.
Still for that read-out and setting: under EASNCFAIRHFENKFAVETLICGIMMRS stands “inactive”; under EASNCFAIRHFENKFAVETLICGINASFRITNQV, 4.83.
Consider EASNCFAIRHFENKFAVETLICGINYWHLFQGVG, for which the amyloid nucleation score entry was “inactive”.
Same read-out and setting: under EASNCFAIRHFENKFAVETLICGINYYCVCWGVT stands “inactive”.
Same read-out and setting: under EASNCFAIRHFENKFAVETLICGIRLLWKRRAVR stands “inactive”; under EASNCFAIRHFENKFAVETLICGISG, “inactive”.
The same measure, in the same setting: the figure for EASNCFAIRHFENKFAVETLICGISTTISGSTGA is 5.28.
Consider EASNCFAIRHFENKFAVETLICGIVIFTTSVDDK, for which the amyloid nucleation score stood at 8.
Same read-out and setting: the figure for EASNCFAIRHFENKFAVETLICGIVYFLHDWRCC is 4.05; for EASNCFAIRHFENKFAVETLICGIWPSGDSMS it is 8.19.
For the sequence EASNCFAIRHFENKFAVETLICGKAYVHGYMKKR, the amyloid nucleation score result was “inactive”.
For the sequence EASNCFAIRHFENKFAVETLICGKESNNTFEVRW, the amyloid nucleation score entry was “inactive”.
Same read-out and setting: the entry for EASNCFAIRHFENKFAVETLICGKKLCQDRSIGL is “inactive”; for EASNCFAIRHFENKFAVETLICGKMGMSRVVRDF it is 1.71; for EASNCFAIRHFENKFAVETLICGKRT it is “inactive”.
On the same count and under the same terms, the figure for EASNCFAIRHFENKFAVETLICGKSMYCGCNVWF is 0.673.
EASNCFAIRHFENKFAVETLICGKSNVRTVCGCM: the amyloid nucleation score was 3.8.
The same measure, in the same setting: the entry for EASNCFAIRHFENKFAVETLICGLAESGGRARFW is “inactive”.

The same data set, now with this note: random library (experiment): 3.
EASNCFAIRHFENKFAVETLICGHVCSCPVYNRH: the amyloid nucleation score turned out to be 8.66.
EASNCFAIRHFENKFAVETLICGHWDYAA: the amyloid nucleation score entry was “inactive”.
The same measure, in the same setting: under EASNCFAIRHFENKFAVETLICGHYMCCSISCAL stands 5.63.
Still for that read-out and setting: under EASNCFAIRHFENKFAVETLICGIAIGHGARRLG stands “inactive”; under EASNCFAIRHFENKFAVETLICGIHWVSVGEPGG, 2.44.
The same measure, in the same setting: the entry for EASNCFAIRHFENKFAVETLICGIIYWRPCQQVL is “inactive”; for EASNCFAIRHFENKFAVETLICGILIRLCRGSRG it is “inactive”.
Sequence EASNCFAIRHFENKFAVETLICGIRHWQPCASRE yielded an amyloid nucleation score of 5.33.
In the case of EASNCFAIRHFENKFAVETLICGIRMRVTFFLPG, the amyloid nucleation score entry is “inactive”.
Same read-out and setting: the figure for EASNCFAIRHFENKFAVETLICGISCAA is 0.52.
On the same count and under the same terms, the entry for EASNCFAIRHFENKFAVETLICGISITMSQCRVV is “inactive”; for EASNCFAIRHFENKFAVETLICGISRVVKENRAA it is “inactive”; for EASNCFAIRHFENKFAVETLICGIVQRVEWGFGY it is “inactive”.
Turning to EASNCFAIRHFENKFAVETLICGKAPRDMWTFLG, the amyloid nucleation score is 0.0556.
In the case of EASNCFAIRHFENKFAVETLICGKGLPCPRLDGD, the amyloid nucleation score entry is “inactive”.
On the same count and under the same terms, the entry for EASNCFAIRHFENKFAVETLICGKGRARSVVMRR is “inactive”; for EASNCFAIRHFENKFAVETLICGKGTTLHVRNLK it is -0.402.
Same read-out and setting: the entry for EASNCFAIRHFENKFAVETLICGKHR is “inactive”; for EASNCFAIRHFENKFAVETLICGKLGIRCKQHVR it is “inactive”; for EASNCFAIRHFENKFAVETLICGKQHRQLMRVLV it is “inactive”.
Regarding EASNCFAIRHFENKFAVETLICGKSHESGMLNGW, the amyloid nucleation score entry was “inactive”.
Take EASNCFAIRHFENKFAVETLICGKSLRCRKWLMN: the amyloid nucleation score entry was “inactive”.
As to EASNCFAIRHFENKFAVETLICGKVDGRSKAASG, the amyloid nucleation score entry is “inactive”.
Still for that read-out and setting: under EASNCFAIRHFENKFAVETLICGKVLVSHGARGE stands 2.73.
For EASNCFAIRHFENKFAVETLICGKWLVGIICLRR, the amyloid nucleation score entry was “inactive”.
The sequence EASNCFAIRHFENKFAVETLICGKWRLWVKVFGD came in with an amyloid nucleation score of 0.527.
Still for that read-out and setting: under EASNCFAIRHFENKFAVETLICGL stands “inactive”.
The same measure, in the same setting: under EASNCFAIRHFENKFAVETLICGLAAICGVFGR stands 2.19; under EASNCFAIRHFENKFAVETLICGLAFTCVPCPLG, “inactive”.
